# Data published in the supplement of paper PMC8728848.
# Some of the results follow.
# B1: EEA (Euonymus europaeus) (protein)
# chain: MASTIIATGPTYRVYCRAAPNYNMIVGKGVAFLAPIDETNELQYWYKDDTYSYIKDEAGLPAFSLVNKATGLTLKHSNHHPVPVKLVTYNPNVVDESVLWSQADDRGDGYSAIRSLTNPASHLEAAPLNDWSYNGAIIMGGVWIDAYNQQWKIEPHTG
# Key:
# Assay in all cases: glycan array binding signal (z-score within array); higher = stronger binding
# Settings in all cases: glycan notation: IUPAC condensed, linker removed
# [1] = biological target: Man(a1-2)Man(a1-2)Man(a1-3)[Man(a1-2)Man(a1-3)[Man(a1-2)Man(a1-6)]Man(a1-6)]Man(b1-4)GlcNAc(b1-4)GlcNAc
# Method in brief: (§1)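 Negative Z-scores can be read as non-binding. The Z-score is calculated within each array and then averaged across arrays of one protein sequence at different concentrations or buffers and across linkers. Arrays, 3228 in all, were curated from the Consortium for Functional Glycomics database and kept only where the protein sequence was available.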
# [2] = biological target: Man(a1-2)Man(a1-2)Man(a1-3)[Man(a1-2)Man(a1-6)[Man(a1-3)]Man(a1-6)]Man(b1-4)GlcNAc(b1-4)GlcNAc
# Method in brief: as §1
# [3] = biological target: Man(a1-2)Man(a1-2)Man(a1-6)[Man(a1-3)]Man
# Method in brief: as §1
# Man(a1-2)Man(a1-3)Man = biological target: Man(a1-2)Man(a1-3)Man
# Method in brief: as §1
# [4] = biological target: Man(a1-2)Man(a1-3)[Man(a1-2)Man(a1-6)]Man
# Method in brief: as §1
# [5] = biological target: Man(a1-2)Man(a1-3)[Man(a1-2)Man(a1-6)]Man(a1-6)[Man(a1-2)Man(a1-2)Man(a1-3)]Man
# Method in brief: as §1
# [6] = biological target: Man(a1-2)Man(a1-3)[Man(a1-2)Man(a1-6)]Man(a1-6)[Man(a1-2)Man(a1-2)Man(a1-3)]Man(b1-4)GlcNAc(b1-4)GlcNAc
# Method in brief: as §1
# [7] = biological target: Man(a1-2)Man(a1-3)[Man(a1-3)[Man(a1-6)]Man(a1-6)]Man(b1-4)GlcNAc(b1-4)GlcNAc
# Method in brief: as §1
# [8] = biological target: Man(a1-2)Man(a1-3)[Man(a1-6)]Man(a1-6)[Man(a1-2)Man(a1-3)]Man(b1-4)GlcNAc(b1-4)GlcNAc
# Method in brief: as §1
# [9] = biological target: Man(a1-2)Man(a1-6)[Man(a1-3)]Man(a1-6)[Man(a1-2)Man(a1-2)Man(a1-3)]Man
# Method in brief: as §1
# [10] = biological target: Man(a1-2)Man(a1-6)[Man(a1-3)]Man(a1-6)[Man(a1-2)Man(a1-2)Man(a1-3)]Man(b1-4)GlcNAc(b1-4)GlcNAc
# Method in brief: as §1
# Man(a1-3)[Man(a1-6)]Man = biological target: Man(a1-3)[Man(a1-6)]Man
# Method in brief: as §1
# [11] = biological target: Man(a1-3)[Man(a1-6)]Man(a1-6)[Man(a1-2)Man(a1-3)]Man(b1-4)GlcNAc(b1-4)GlcNAc
# Method in brief: as §1
# [12] = biological target: Man(a1-3)[Man(a1-6)]Man(a1-6)[Man(a1-3)]Man
# Method in brief: as §1
# [13] = biological target: Man(a1-3)[Man(a1-6)]Man(a1-6)[Man(a1-3)]Man(b1-4)GlcNAc(b1-4)GlcNAc
# Method in brief: as §1
# [14] = biological target: Man(a1-3)[Man(a1-6)]Man(b1-4)GlcNAc(b1-4)GlcNAc
# Method in brief: as §1
# [15] = biological target: Man(a1-3)[Man(a1-6)]Man(b1-4)GlcNAc(b1-4)[Fuc(a1-6)]GlcNAc
# Method in brief: as §1
# Man(a1-6)Man = biological target: Man(a1-6)Man
# Method in brief: as §1
# Man(b1-4)GlcNAc = biological target: Man(b1-4)GlcNAc
# Method in brief: as §1
# MurNAc(b1-4)GlcNAc = biological target: MurNAc(b1-4)GlcNAc
# Method in brief: as §1
# Neu5Ac(a2-3)Gal = biological target: Neu5Ac(a2-3)Gal
# Method in brief: as §1
# [16] = biological target: Neu5Ac(a2-3)Gal(b1-3)GalNAc
# Method in brief: as §1
# [17] = biological target: Neu5Ac(a2-3)Gal(b1-3)GalNAc(b1-3)Gal(a1-4)Gal(b1-4)Glc
# Method in brief: as §1
# [18] = biological target: Neu5Ac(a2-3)Gal(b1-3)GalNAc(b1-3)Gal(b1-4)GlcNAc
# Method in brief: as §1
# [19] = biological target: Neu5Ac(a2-3)Gal(b1-3)GalNAc(b1-4)[Neu5Ac(a2-3)]Gal(b1-4)Glc
# Method in brief: as §1
# [20] = biological target: Neu5Ac(a2-3)Gal(b1-3)GalNAc(b1-4)[Neu5Ac(a2-8)Neu5Ac(a2-3)]Gal(b1-4)Glc
# Method in brief: as §1
# [21] = biological target: Neu5Ac(a2-3)Gal(b1-3)GalNAc6S
# Method in brief: as §1
# [22] = biological target: Neu5Ac(a2-3)Gal(b1-3)GlcNAc
# Method in brief: as §1
# [23] = biological target: Neu5Ac(a2-3)Gal(b1-3)GlcNAc(b1-2)Man
# Method in brief: as §1
# [24] = biological target: Neu5Ac(a2-3)Gal(b1-3)GlcNAc(b1-2)Man(a1-3)[GlcNAc(b1-4)][Neu5Ac(a2-3)Gal(b1-3)GlcNAc(b1-2)Man(a1-6)]Man(b1-4)GlcNAc(b1-4)GlcNAc
# Method in brief: as §1
# [25] = biological target: Neu5Ac(a2-3)Gal(b1-3)GlcNAc(b1-2)Man(a1-3)[Neu5Ac(a2-3)Gal(b1-3)GlcNAc(b1-2)Man(a1-6)]Man(b1-4)GlcNAc(b1-4)GlcNAc
# Method in brief: as §1
# [26] = biological target: Neu5Ac(a2-3)Gal(b1-3)GlcNAc(b1-3)Gal(b1-3)GlcNAc
# Method in brief: as §1
# [27] = biological target: Neu5Ac(a2-3)Gal(b1-3)GlcNAc(b1-3)Gal(b1-4)GlcNAc
# Method in brief: as §1
# [28] = biological target: Neu5Ac(a2-3)Gal(b1-3)GlcNAc(b1-3)GalNAc
# Method in brief: as §1
# [29] = biological target: Neu5Ac(a2-3)Gal(b1-3)GlcNAc(b1-4)Gal(b1-4)Glc
# Method in brief: as §1
# [30] = biological target: Neu5Ac(a2-3)Gal(b1-3)GlcNAc(b1-6)GalNAc
# Method in brief: as §1
# [31] = biological target: Neu5Ac(a2-3)Gal(b1-3)GlcNAc6S
# Method in brief: as §1
# [32] = biological target: Neu5Ac(a2-3)Gal(b1-3)[Fuc(a1-4)]GlcNAc
# Method in brief: as §1
# [33] = biological target: Neu5Ac(a2-3)Gal(b1-3)[Fuc(a1-4)]GlcNAc(b1-3)Gal(b1-3)[Fuc(a1-4)]GlcNAc
# Method in brief: as §1
# [34] = biological target: Neu5Ac(a2-3)Gal(b1-3)[Fuc(a1-4)]GlcNAc(b1-3)Gal(b1-4)[Fuc(a1-3)]GlcNAc
# Method in brief: as §1
# [35] = biological target: Neu5Ac(a2-3)Gal(b1-3)[GlcNAc(b1-6)]GalNAc
# Method in brief: as §1
binder,measurement,setting,value
B1,glycan array binding signal (z-score),[1],-0.18
same,glycan array binding signal (z-score),[2],-0.098
same,glycan array binding signal (z-score),[3],-0.197
same,glycan array binding signal (z-score),Man(a1-2)Man(a1-3)Man,-0.14
same,glycan array binding signal (z-score),[4],-0.291
same,glycan array binding signal (z-score),[5],-0.213
same,glycan array binding signal (z-score),[6],-0.112
same,glycan array binding signal (z-score),[7],-0.093
same,glycan array binding signal (z-score),[8],-0.013
same,glycan array binding signal (z-score),[9],-0.228
same,glycan array binding signal (z-score),[10],0.811
same,glycan array binding signal (z-score),Man(a1-3)[Man(a1-6)]Man,-0.159
same,glycan array binding signal (z-score),[11],0.066
same,glycan array binding signal (z-score),[12],-0.12
same,glycan array binding signal (z-score),[13],1.16
same,glycan array binding signal (z-score),[14],-0.186
same,glycan array binding signal (z-score),[15],-0.211
same,glycan array binding signal (z-score),Man(a1-6)Man,-0.169
same,glycan array binding signal (z-score),Man(b1-4)GlcNAc,-0.125
same,glycan array binding signal (z-score),MurNAc(b1-4)GlcNAc,-0.199
same,glycan array binding signal (z-score),Neu5Ac(a2-3)Gal,-0.154
same,glycan array binding signal (z-score),[16],-0.163
same,glycan array binding signal (z-score),[17],-0.24
same,glycan array binding signal (z-score),[18],0.029
same,glycan array binding signal (z-score),[19],-0.223
same,glycan array binding signal (z-score),[20],-0.195
same,glycan array binding signal (z-score),[21],-0.231
same,glycan array binding signal (z-score),[22],-0.171
same,glycan array binding signal (z-score),[23],-0.109
same,glycan array binding signal (z-score),[24],-0.134
same,glycan array binding signal (z-score),[25],-0.131
same,glycan array binding signal (z-score),[26],-0.181
same,glycan array binding signal (z-score),[27],-0.156
same,glycan array binding signal (z-score),[28],-0.099
same,glycan array binding signal (z-score),[29],-0.192
same,glycan array binding signal (z-score),[30],-0.187
same,glycan array binding signal (z-score),[31],-0.092
same,glycan array binding signal (z-score),[32],-0.255
same,glycan array binding signal (z-score),[33],-0.246
same,glycan array binding signal (z-score),[34],-0.228
same,glycan array binding signal (z-score),[35],-0.244
